Laboratory results: patent US11542275B2, “Substituted imidazolidin-2-one derivatives as PRMT5 inhibitors” (Aurigene Discovery Technologies Limited, priority 2018, dated 2023)

Biological target: PRMT5/MEP50 Complex (Homo sapiens (Human), UniProt O14744)
Assay: PRMT5 inhibition based on TR-FRET assay
Type: biochemical
Details: 32 nM PRMT5:MEP50 complex, 50 nM Histone-H4 peptide, 1 μM SAM, 90 minutes at room temperature
Excerpt: Protein arginine methyltransferase 5 (PRMT5) is a type II arginine methyltransferase that catalyze mono- and symmetric demethylation on arginine residues of histone or non-histone proteins in presence of S-adenosylmethionine (AdoMet or SAM) a cofactor responsible for donating the methyl group. PRMT5 is reported to be overexpressed in several human cancers. To identify compounds that inhibit the PRMT5 and decrease its activity, a TR-FRET based assay has been established. Time-resolved fluorescence resonance energy transfer (TR-FRET) HTS assays are homogeneous proximity assays where the interaction of two dye-labeled binding partners is detected by the energy transfer between a donor and an acceptor dye, and the subsequent light emission by the acceptor dye. PRMT5 catalyzes Histone H4 peptide which is biotin tagged to the Lysine amino acid at carboxyl end, in presence of S-adenosyl-1-methionine (SAM) to methylate the peptide. The antibody specific to mono methylated H4 peptide (H4R3) with Ig conjugate binds to the methylated peptide, indirectly binding to the Europium lanthanide. SureLight Allophycocyanin-Streptavidin binds to the biotin tag of the peptide, therefore accepting the energy transferred from the Europium lanthanide. This energy transfer between Europium to SureLight Allophycocyanin is a direct measure of the activity/inhibition of the PRMT5 enzyme.
Assay buffer: 20 mM BICINE (pH 7.6), 25 mM NaCl, 2 mM DTT, 0.01% Tween-20 and 0.01% BSA.
The compound dilutions were prepared as 7.5% DMSO stock solutions in assay buffer. To 2 μL (7.5×) of test compound, 5 μL of PRMT5 enzyme prepared in assay buffer (Final concentration of 32 nM in 15 μL reaction volume) was added and allowed for 30 minutes pre-incubation time in a white polystyrene 384-well plate at room temperature. […] The plates were then read on Victor-3 with Excitation at 340 nm and Emissions collected at 615 and 665 nm in TR-FRET protocol. […]

| SMILES | IC50 [µM] |
| --- | --- |
| O=C1N(Cc2ccc(C3CCOCC3)cn2)CCN1C[C@@H](O)CNC1Cc2ccccc2C1 [Compound 90, (S)-1-(3-((2,3-dihydro-1H-inden-2-yl)amino)-2-hydroxypropyl)-3-((5-(tetrahydro-2H-pyran-4-yl)pyridin-2-yl)methyl)imidazolidin-2-one] | 0.285 |
| CC(=O)N1CCN(c2ccc(CN3CCN(CC(O)CN4CCc5cccc(F)c5C4)C3=O)nc2)CC1 (stereo not drawn) [Compound 81, 1-((5-(4-acetylpiperazin-1-yl)pyridin-2-yl)methyl)-3-(3-(8-fluoro-3,4-dihydroisoquinolin-2(1H)-yl)-2-hydroxypropyl)imidazolidin-2-one] | 0.019 |
| O=C1N(Cc2ccc(C3CCOCC3)cn2)CCN1CC(O)CNC1Cc2ccccc2C1 (racemic) [Compound 88, 1-(3-((2,3-dihydro-1H-inden-2-yl)amino)-2-hydroxypropyl)-3-((5-(tetrahydro-2H-pyran-4-yl)pyridin-2-yl)methyl)imidazolidin-2-one] | 0.022 |
